# The supplement of paper PMC9588766
# Where a name gives a salt, the structure may show the parent alone. ± gives the standard deviation of the averaged measurements. Over roughly 2,000 compounds, “cell viability relative to DMSO control (compound alone)” has its median near 0.98; the lowest 2% begin near 0.23. Some of the results follow.
# Test system: PDC-DUC18828
# Assay: cell viability relative to DMSO control (compound alone) (fraction); PDC-DUC18828 is a patient-derived cholangiocarcinoma cell line; higher = less growth inhibition
# Details: 1 µM; 72 h
# Procedure: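 Selleck Bioactive library screen in the patient-derived FGFR2-G3BP2 fusion-positive ICC cell line PDC-DUC18828 (500 cells/well). Each compound was tested at 1 uM alone, in triplicate, for 72 h. Viability was read by CellTiter-Glo and normalised to plate DMSO controls.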
row,Structure (SMILES),cell viability
1,C#CCN[C@@H]1CCc2ccccc21 [Rasagiline Mesylate],1.06 ± 0.024
2,COc1ccc(NS(=O)(=O)c2sc3ccc(Cl)cc3c2C)cc1N1CCNCC1,0.991 ± 0.018
3,Nc1ccn([C@H]2CC[C@@H](CO)O2)c(=O)n1 [Zalcitabine],0.963 ± 0.045
4,CCc1cc(Nc2nccc(-c3c(-c4ccc(OC)c(C(=O)Nc5c(F)cccc5F)c4)nc4ccccn34)n2)c(OC)cc1N1CCC(N2CCN(S(C)(=O)=O)CC2)CC1,1.05 ± 0.038
5,CN(C)CCOC(C)(c1ccccc1)c1ccccn1 (stereo unspecified) [Doxylamine Succinate],0.984 ± 0.041
6,C=CCNC(N)=S [Allylthiourea],1.04 ± 0.065
7,CNC(=O)c1cccc(-c2ccc3c(N4CCOC[C@@H]4C)nc(N4CCOC[C@@H]4C)nc3n2)c1,0.289 ± 0.0052
8,COc1cccc(-c2cc(=O)c3ccccc3o2)c1N,1.04 ± 0.038
9,CC(C)(C#N)c1cc(Cn2cncn2)cc(C(C)(C)C#N)c1 [Anastrozole],0.917 ± 0.043
10,COc1cc2nccc(Oc3ccc(NC(=O)Nc4cc(C)on4)c(Cl)c3)c2cc1OC [Tivozanib (AV-951)],0.811 ± 0.013
11,C[C@@H](O)[C@H]1C(=O)N2C(C(=O)O)=C(S[C@@H]3CN[C@H](CNS(N)(=O)=O)C3)[C@H](C)[C@H]12 [Doripenem Hydrate],1.05 ± 0.059
12,COc1cccc(-n2c(=O)[nH]c3cc(Cl)n(-c4ccc(-c5cccc(OC)c5O)cc4)c3c2=O)c1,0.952 ± 0.034
13,CN(CC(=O)N(Cc1ccc(C2CCCCC2)cc1)c1ccc(C(=O)O)cc1)S(=O)(=O)c1c(F)c(F)c(F)c(F)c1F,0.9 ± 0.12
14,OC(CNCC(O)C1CCc2cc(F)ccc2O1)C1CCc2cc(F)ccc2O1 (stereo unspecified) [Nebivolol],1.04 ± 0.026
15,O=C(CCc1ccc(O)cc1)c1c(O)cc(O)cc1O [Phloretin],1.1 ± 0.036
16,CC[C@H](C)[C@H](N)C1=N[C@H](C(=O)N[C@@H](CC(C)C)C(=O)N[C@H](CCC(=O)O)C(=O)N[C@H](C(=O)N[C@H]2CCCCNC(=O)[C@H](CC(N)=O)NC(=O)[C@@H](CC(=O)O)NC(=O)[C@H](Cc3cnc[nH]3)NC(=O)[C@@H](Cc3ccccc3)NC(=O)[C@H]([C@@H](C)CC)NC(=O)[C@@H](CCCN)NC2=O)[C@@H](C)CC)CS1 [Bacitracin],1.02 ± 0.016
17,CC(S)C(=O)NCC(=O)O (stereo unspecified) [Tiopronin],1.04 ± 0.026
18,CNCc1ccc(-c2cc(-c3nc(-c4ccc(S(=O)(=O)C(C)C)cc4)cnc3N)on2)cc1,0.883 ± 0.08
19,CN1CCN(CCCN2c3ccccc3Sc3ccc(C(F)(F)F)cc32)CC1 [Trifluoperazine 2HCl],0.96 ± 0.033
20,O=C(NCc1ccccc1)c1csc(Nc2ccncn2)n1 [Thiazovivin],0.99 ± 0.013
21,CNC[C@H](O)c1ccc(O)c(O)c1 [Epinephrine HCl],0.939 ± 0.033
22,CNC[C@H](O)c1ccc(O)c(O)c1 [Epinephrine Bitartrate],1.02 ± 0.033
23,CNC(=O)c1cc(Oc2ccc(NC(=O)Nc3ccc(Cl)c(C(F)(F)F)c3)c(F)c2)ccn1 [Regorafenib (BAY 73-4506)],0.941 ± 0.022

row,Structure (SMILES),cell viability
1,CC(C)(C)NCC(O)COc1cccc2c1CCC(=O)N2 (stereo unspecified) [Carteolol HCl],1 ± 0.051
2,CN(C)CC(=O)Nc1ccc2[nH]c(=O)c3ccccc3c2c1,1.04 ± 0.028
3,O=C(O)c1cc(/N=N/c2ccc(O)c(C(=O)O)c2)ccc1O [Olsalazine Sodium],1.05 ± 0.015
4,O=C(Nc1ccccc1-c1cn2c(CN3CCNCC3)csc2n1)c1cnc2ccccc2n1,0.808 ± 0.0086
5,O=C(C1CCCCC1)N1CC(=O)N2CCc3ccccc3C2C1 (stereo unspecified) [Praziquantel],1.03 ± 0.021
6,C[C@@H]1CCO[C@H]2Cn3cc(C(=O)NCc4ccc(F)cc4F)c(=O)c(O)c3C(=O)N12,1.09 ± 0.047
7,C[C@]1(O)C[C@@H](c2nc(-c3ccc4ccc(-c5ccccc5)nc4c3)c3c(N)nccn32)C1 [OSI-906 (Linsitinib)],0.868 ± 0.053
8,CC(C)C[C@H](NC(=O)[C@@H](NC(=O)c1cccc(-c2ccccc2)n1)[C@@H](C)O)B(O)O,0.0155 ± 0.0027
9,CNC(=O)c1cc(Oc2ccc(NC(=O)Nc3cc(C(C)(C)C)nn3-c3ccc4ncccc4c3)c(F)c2)ccn1 [DCC-2036 (Rebastinib)],0.952 ± 0.034
10,OC[C@H]1O[C@H](O[C@]2(CCl)O[C@H](CCl)[C@@H](O)[C@@H]2O)[C@H](O)[C@@H](O)[C@H]1Cl [Sucralose],1.01 ± 0.017
11,COc1ccc2c(c1)c(CC(=O)O)c(C)n2C(=O)c1ccc(Cl)cc1 [Indomethacin],1.02 ± 0.029
12,CN1CCC(=C2c3ccccc3CCc3cccnc32)CC1 [Azatadine dimaleate],0.791 ± 0.056
13,Nc1nc2ccc(OC(F)(F)F)cc2s1 [Riluzole],1.1 ± 0.082
14,Cc1c(OCC(F)(F)F)ccnc1C[S@@+]([O-])c1nc2ccccc2[nH]1 [Dexlansoprazole],1.03 ± 0.023
15,CC[C@H]1OC(=O)[C@H](C)[C@@H](O[C@H]2C[C@@](C)(OC)[C@@H](O)[C@H](C)O2)[C@H](C)[C@@H](O[C@@H]2O[C@H](C)C[C@H](N(C)C)[C@H]2O)[C@](C)(O)C[C@@H](C)C(=O)[C@H](C)[C@H]2OC(=O)O[C@@]21C [Erythromycin Cyclocarbonate],1.01 ± 0.047
16,NC(=O)c1cn(Cc2c(F)cccc2F)nn1 [Rufinamide],0.865 ± 0.021
17,Cc1cc(O)c2c(c1)C(=O)c1cccc(O)c1C2=O [Chrysophanic Acid],0.9325 ± 0.0033
18,CC(C(=O)O)c1ccc(-c2ccccc2)c(F)c1 (stereo unspecified) [Flurbiprofen],0.938 ± 0.04
19,C[C@H]1O[C@@H](O[C@H]2[C@@H](O)C[C@H](O[C@H]3[C@@H](O)C[C@H](O[C@H]4CC[C@@]5(C)[C@H](CC[C@@H]6[C@@H]5C[C@@H](O)[C@]5(C)[C@@H](C7=CC(=O)OC7)CC[C@]65O)C4)O[C@@H]3C)O[C@@H]2C)C[C@H](O)[C@@H]1O [Digoxin],0.133 ± 0.0037
20,CC(NC(=O)C(Cc1ccccc1)NC(=O)OCc1ccccc1)C(=O)CF (stereo unspecified),0.93 ± 0.011
21,C=CCc1cccc(/C=N/NC(=O)CN2CCN(Cc3ccccc3)CC2)c1O,0.965 ± 0.033
22,CC(C(=O)O)c1ccc2c(c1)[nH]c1ccc(Cl)cc12 (stereo unspecified) [Carprofen],1.02 ± 0.053
23,O=C(Nc1cccc(C(F)(F)F)c1)Nc1cc(S(=O)(=O)NC2CC2)ccc1-c1ccsc1,0.9874 ± 0.0046
